In PubChem BioAssay AID686971 (National Center for Advancing Translational Sciences (NCATS), 2013):
The campaign covered roughly 360,000 compounds. About 7,500 (2.1%) were called active. This list was built around the results that the source calls inconclusive (neither active nor inactive); the mix of calls is not that of the screen. Calls follow the shape of the dose curve; as a rule, active = well fitted cell-killing curve with a large enough effect; inconclusive = small, poorly fitted or top-dose-only effect, or effect the other way, or another doubt; inactive = no such curve, though single readings can be large or run the other way. No potency is given beside an inconclusive call; the fits are too rough.

Experiment: qHTS for induction of synthetic lethality in tumor cells producing 2HG: qHTS for the HT-1080-IDH1KD cell line;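 as to activity, negative = toxicity: 0% = DMSO wells and -100% = cell-free medium wells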
Conditions: HT-1080 IDH1 knockdown viability, ATP luminescence, 48 h; activity, negative = toxicity: at 46.1 µM (top of the series) unless noted
Outline: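 Assay cells: HT-1080 with IDH1 knockdown, 750 per well, RPMI/5% FBS. Exposure: 48 h at 37 °C following 2 h pre-incubation. Read: CellTiter-Glo luminescence; fitted concentration-response, curve class assigned.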
Potency is read from the fitted curve at half-maximal effect; tags tell the direction and shape of the fitted curve.

Row | Compound | Potency | activity, negative = toxicity
1 | Cc1ccc(CN2CCCC(CO)(Cc3ccccc3C)C2)s1 (stereo unspecified) | inconclusive [cytotoxic, single point] | 
2 | Clc1ccc(-c2nnc(NCc3ccccc3)c3ccccc23)cc1 | inconclusive [cytotoxic, single point] | 
3 | O=C(Nc1ccc(Oc2cccnc2)nc1)c1ccc(C(F)(F)F)cc1 | inconclusive [cytotoxic, full curve] | 
4 | COc1cccc2c1OC[C@@H](CO)[C@H]2N(C)C(=O)Nc1ccc(Cl)cc1 | inconclusive [cytotoxic, single point] | 
5 | CC(C)(C)c1ccc(OCCCC(=O)Nc2cccc(S(=O)(=O)N3CCOCC3)c2)cc1 | inconclusive [cytotoxic, single point] | 
6 | COc1ccc(NC(=O)[C@H](Cc2c[nH]c3ccccc23)NC(=O)[C@@H]2Cc3ccccc3CN2)cc1 | inconclusive [cytotoxic, single point] | 
7 | Cc1ccc(C)c(C(O)c2ncc(-c3cccc(C(F)(F)F)c3)[nH]2)c1 (stereo unspecified) | inconclusive [cytotoxic, single point] | 
8 | CC[C@]12c3[nH]c4cc(-c5ccco5)ccc4c3CCN1C(=O)[C@@H](CC(=O)NCC13CC4CC(CC(C4)C1)C3)C[C@@H]2C(=O)N1CCN(C(=O)C2CC2)CC1 | inconclusive [cytotoxic, single point] | 
9 | O=C(COC(=O)c1c2c(nc3ccccc13)/C(=C/c1cccc([N+](=O)[O-])c1)CCC2)NC1CCS(=O)(=O)C1 (stereo unspecified) | inconclusive [cytotoxic, partial curve] | 
10 | O=C(CO)N/N=C/c1c2ccccc2cc2ccccc12 | inconclusive [cytotoxic, single point] | 
11 | Cc1sc(NC(=O)/C=C/c2ccc3c(c2)OCO3)nc1-c1ccccc1 | inconclusive [cytotoxic, single point] | 
12 | COc1ccc(C=O)cc1OS(=O)(=O)c1ccc(NC(C)=O)cc1 | inconclusive [cytotoxic, single point] | 
13 | CN(CC1CCCO1)S(=O)(=O)c1ccc(C(=O)Nc2nc(-c3ccccn3)cs2)cc1 (stereo unspecified) | inconclusive [cytotoxic, full curve] | 
14 | Clc1cccc(Cl)c1/C=C/c1ccn[nH]1 | inconclusive [cytotoxic, single point] | 
15 | O=C(Nc1ccc2c(c1)OCO2)C1Cc2c(-c3ccc(Cl)cc3)ccnc2O1 (stereo unspecified) | inconclusive [cytotoxic, partial curve] | 
16 | CC(=O)CCS(=O)(=O)c1ccc(NC(C)=O)cc1 | inconclusive [cytotoxic, single point] | 
17 | CCc1nc2c(OCC3CCCCC3)cccn2c1N(C)C(=O)c1ccc(OC)cc1 | inconclusive [cytotoxic, single point] | 
18 | O=C(c1ccc(N2CCCC2=O)cc1)N1CCN(c2ccccc2O)CC1 | inactive | 
19 | CCc1ccc2[nH]c(=O)c(CN(CCN(CC)CC)C(=S)NCc3ccco3)cc2c1 | inconclusive [cytotoxic, single point] | 
20 | O=C(COC(=O)CNS(=O)(=O)c1c(F)cccc1F)NC(=O)NC1CCCCC1 | inactive | 
21 | Cc1ccc(S(=O)(=O)N(CC(=O)N/N=C/c2ccco2)c2cc(Cl)cc(Cl)c2)cc1 | inconclusive [cytotoxic, single point] | 
22 | COc1ccc(CCNC2CCC(c3ccccc3)CC2)cc1 (stereo unspecified) | inconclusive [cytotoxic, partial curve] | 

Row | Compound | Potency | activity, negative = toxicity
23 | CC(C)N1C/C(=C/c2cccnc2)C(=O)/C(=C/c2cccnc2)C1 | active: 5.8 µM | 
24 | CCN(CC)C(=O)c1cccc(-c2csc(C(O)c3cccc(OC)c3)n2)c1 (stereo unspecified) | inconclusive [cytotoxic, partial curve] | 
25 | O=C(COC(=O)C1CC2CCCC(C1)C2=O)Nc1ccc(Cl)cn1 (stereo unspecified) | inactive | 
26 | O=C(NCCCN1CCc2ccccc2C1)Nc1ccc(Br)cc1 | active: 18.4 µM | 
27 | FC(F)(F)COc1nc(N2CCOCC2)nc(N(c2ccccc2)c2ccccc2)n1 | inconclusive [cytotoxic, single point] | 
28 | Cc1ccc(S(=O)(=O)N2[C@@H](c3ccc(Cl)cc3)C(C(=O)O)=C[C@H]2CC2CCCC2)cc1 | inactive | 
29 | CCc1nc2ccccc2c(C(=O)OCCN2C(=O)c3ccccc3C2=O)c1C | inactive | 
30 | O=C(CNC(=O)c1ccccc1Br)N/N=C/c1cc(Br)ccc1O | inconclusive [cytotoxic, partial curve] | 
31 | O=C(NCCN1C(=O)S/C(=C\c2ccccc2F)C1=O)C1CCCN1C(=O)c1cccs1 (stereo unspecified) | inactive | 
32 | CC(=O)Nc1cc(-c2cccc(F)c2)cn2c(-c3ccc(F)c(Cl)c3)cnc12 | inconclusive [cytotoxic, single point] | 
33 | COC(=O)/C=C\C(=O)Nc1cccc([N+](=O)[O-])c1 | inconclusive [cytotoxic, single point] | 
34 | COc1ccccc1N=NC1C(=O)N(C(N)=S)N=C1C (stereo unspecified) | inconclusive [cytotoxic, single point] | 
35 | CCN(CC)CCCNC(=O)CSc1nc2c(c(C(F)(F)F)n1)CCc1ccccc1-2 | inconclusive [cytotoxic, single point] | 
36 | CS(=O)(=O)c1ccc(Sc2nc3ccccc3s2)c([N+](=O)[O-])c1 | active: 20.6 µM | 
37 | Cc1c(C(=O)NCc2cccs2)oc2ccccc12 | inconclusive [cytotoxic, single point] | 
38 | Cn1c(=N)n(CC(=O)c2ccc(Br)cc2)c2ccccc21 | active: 23.1 µM | 
39 | CCn1nc(NC(=O)c2ccncc2)c2cc3ccc(C)cc3nc21 | inconclusive [cytotoxic, single point] | 
40 | O=C(NCc1cccnc1)c1ccc(COc2cccc3ccccc23)o1 | inconclusive [cytotoxic, partial curve] | 
41 | Cn1c(-c2ccc3c(c2)OCO3)cnc1NCc1ccccc1 | inconclusive [cytotoxic, single point] | 
42 | COc1cc(CCc2ccccc2)c(C(=O)O)c(O)c1C/C=C(/C)CCC=C(C)C | inconclusive [cytotoxic, single point] | 
43 | Cc1ccc(S(=O)(=O)Nc2ccccc2OC(C(=O)OC(C)(C)C)C(=O)OC(C)(C)C)cc1 | inconclusive [cytotoxic, single point] | 
44 | CCN(CC)CCNc1ccnc2cc(Cl)ccc12 | inconclusive [cytotoxic, single point] | 

Row | Compound | Potency | activity, negative = toxicity
45 | COc1ccc(OC)c(-c2csc(NC(=O)c3ccc4c(c3)OCO4)n2)c1 | inactive | 
46 | O=C(Nc1ccc2ccccc2c1)C(c1ccccc1F)n1c(=O)c(-c2cc3ccccc3[nH]2)nc2ccccc21 (stereo unspecified) | inconclusive [cytotoxic, single point] | 
47 | O=C(N/N=C/c1ccc2c(c1)OCO2)c1ccc(Br)o1 | inconclusive [cytotoxic, partial curve] | 
48 | O=C(NCc1cccnc1)c1ccc(-c2ccc(F)c(F)c2)c2ccoc12 | inconclusive [cytotoxic, full curve] | 
49 | CCCn1c(C)cc(C(=O)COc2ncnc3sccc23)c1C | inconclusive [cytotoxic, single point] | 
50 | CN1CCC(N2CCN(C3CN(C4CCCC4)S(=O)(=O)C3)CC2)CC1 (stereo unspecified) | inactive | 
51 | NC(=O)c1cc(Br)cc(C2CCCCC2)c1O | inconclusive [cytotoxic, single point] | 
52 | NCC(c1ccccc1)(c1ccccc1)c1ccccc1 | inconclusive [cytotoxic, partial curve, poor fit] | 
53 | Cc1cc(NC(=O)CSc2nc(=O)n(CCCN(C)C)c3c2CCCC3)no1 | inactive | 
54 | COc1ccc(OC)c(CN2CCN(C(=O)c3cccc(S(=O)(=O)N(C)c4ccccc4)c3)CC2)c1 | inactive | 
55 | CCOC(=O)c1c(C)[nH]c(C(=O)CSc2nnc(CC(C)c3ccccc3)o2)c1C (stereo unspecified) | inconclusive [cytotoxic, single point] | 
56 | O=C1c2cc(N3CCCC3)c([N+](=O)[O-])cc2C(=O)N1c1ccccc1 | inactive | 
57 | O=C(Nc1ccc(Br)cc1)c1cccn1-c1ncc(C(F)(F)F)cc1Cl | active: 11.2 µM | 
58 | CN(C)Cc1nc2ccccc2c(=O)n1Cc1nc(-c2cccc([N+](=O)[O-])c2)cs1 | inconclusive [cytotoxic, full curve] | 
59 | COc1ccc(/C=N/Nc2ncnc3sc4c(c23)CCCC4)cc1O | active: 20.6 µM | 
60 | O=C(Nc1cccc2c1CCCC2)c1cc([N+](=O)[O-])ccc1Cl | active: 20.6 µM | 
61 | COc1ccccc1NC(=S)NN=C(C)c1ccccn1 | inconclusive [cytotoxic, full curve] | 
62 | CC1(C(=O)Nc2cccc(NS(C)(=O)=O)c2)CCN1Cc1ccccc1OC(F)F (stereo unspecified) | inconclusive [cytotoxic, single point] | 
63 | COCCNC(=O)/C(C#N)=C/c1cccc(OCc2ccccc2)c1 | inconclusive [cytotoxic, single point] | 
64 | Cc1ccc(NC(=S)N(CCCN2CCCC(C)C2)Cc2ccco2)cc1C (stereo unspecified) |  | inconclusive: -31.1% [cytotoxic]
65 | O=C1C(Sc2ccccc2)=C[C@@]2(O)CC[C@@H](O)[C@]1(Sc1ccccc1)[C@H]2O | inconclusive [cytotoxic, single point] | 
66 | O=[N+]([O-])c1ccc(Nc2nccc(Cl)n2)cc1 | inconclusive [rising, single point] | 
